Measured values: publication PMC4336329 (PLoS ONE, 2015)
About 14,000 (4.5%) of roughly 310,000 compounds showed an effect of 50% or more. The effect is printed as a negative number. The list shows a part of the results.

Target: human ether-à-go-go-related gene (hERG) potassium channel (human, UniProt Q12809)
Test: primary screen, population patch clamp on CHO cells stably expressing hERG
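Note: peak tail current of the secondary pulse compared with the same well before compound.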

Sequence of human ether-à-go-go-related gene (hERG) potassium channel (Q12809 whole entry, looked up): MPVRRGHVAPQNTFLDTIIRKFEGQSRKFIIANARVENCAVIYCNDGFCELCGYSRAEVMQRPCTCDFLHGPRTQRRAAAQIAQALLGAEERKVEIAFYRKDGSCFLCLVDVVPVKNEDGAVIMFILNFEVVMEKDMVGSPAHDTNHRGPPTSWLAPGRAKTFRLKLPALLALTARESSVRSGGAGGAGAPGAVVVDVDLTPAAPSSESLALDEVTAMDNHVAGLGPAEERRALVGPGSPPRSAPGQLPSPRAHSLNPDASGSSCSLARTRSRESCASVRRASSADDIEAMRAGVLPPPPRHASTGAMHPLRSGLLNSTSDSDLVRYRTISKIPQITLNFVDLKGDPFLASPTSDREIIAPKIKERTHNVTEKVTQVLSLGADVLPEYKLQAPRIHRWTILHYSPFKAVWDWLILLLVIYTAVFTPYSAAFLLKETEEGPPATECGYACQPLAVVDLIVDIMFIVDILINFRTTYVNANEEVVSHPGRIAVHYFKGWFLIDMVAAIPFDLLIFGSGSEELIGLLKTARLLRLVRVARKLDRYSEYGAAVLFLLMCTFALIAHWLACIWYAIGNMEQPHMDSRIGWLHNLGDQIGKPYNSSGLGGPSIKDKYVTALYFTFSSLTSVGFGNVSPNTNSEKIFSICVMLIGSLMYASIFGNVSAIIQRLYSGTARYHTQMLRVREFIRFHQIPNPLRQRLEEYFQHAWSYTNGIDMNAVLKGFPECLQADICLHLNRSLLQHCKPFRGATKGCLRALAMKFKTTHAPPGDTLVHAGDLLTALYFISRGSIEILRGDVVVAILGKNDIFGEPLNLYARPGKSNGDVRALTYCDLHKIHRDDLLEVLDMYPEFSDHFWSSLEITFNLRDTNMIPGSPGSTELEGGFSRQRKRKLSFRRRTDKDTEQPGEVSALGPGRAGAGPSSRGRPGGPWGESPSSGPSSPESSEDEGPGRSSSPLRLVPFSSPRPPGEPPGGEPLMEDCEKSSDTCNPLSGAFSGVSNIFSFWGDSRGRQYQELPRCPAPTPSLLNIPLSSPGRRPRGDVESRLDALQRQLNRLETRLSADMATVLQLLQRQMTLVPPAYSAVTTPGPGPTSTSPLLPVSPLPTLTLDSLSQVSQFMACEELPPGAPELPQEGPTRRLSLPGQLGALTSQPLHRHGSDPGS

Compound | hERG current change (%, negative = inhibition) at 10uM
Cc1cc(C(=O)Nc2nnc(C(F)(F)F)s2)cs1 | -6.9%
CC(C)Oc1ccc(Cl)cc1Nc1nc(NCCO)nc(N2CCCC2)n1 | 2.23%
Cc1ccc(-n2ncc3c(Nc4cccc(C(=O)O)c4)ncnc32)cc1 | 16.4%
COc1ccccc1Cn1nc(C(=O)O)c2ccccc2c1=O | 20.1%
COc1ccc(-c2nnc(-c3ccc(F)cc3)o2)cc1 | 14.2%
CCCSc1nc(O)c(C2OC(=O)c3c2ccc(OC)c3OC)c(=O)n1-c1ccccc1 (stereo not shown) | 30.5%
CCc1nnc(NC(=O)Cc2cc(OC)c(OC)c(OC)c2)s1 | 17.2%
Cc1ccccc1C(=O)Nc1nncs1 | 17.8%
O=C(NCCCSc1ccccc1)c1cc(Cl)ccc1O | 8.27%
CC(=O)c1ccc(NC(=O)CSc2nnc(-c3ccoc3C)n2Cc2ccccc2)cc1 | -30.8%
CC(C)(C)C(=O)NC(n1cnc2c(N3CCOCC3)ncnc21)C(Cl)(Cl)Cl (stereo not shown) | 2.02%
COc1cc(C(=O)NCc2cccc3ccccc23)ccc1OCc1ccccc1 | 14%
CCC(C)C(=O)Nc1nnc(CCc2ccccc2)s1 (stereo not shown) | 0.562%
Cn1ncc(Cl)c1C(=O)N/N=C/c1cccc(OC2CSC2)c1 | 8.77%
O=C(CN1CCc2cc3c(cc2C1)OCCCO3)Nc1ccc(F)cc1 | 15%
O=C(NCc1ccccc1)C1=C[C@@H](C2CCCCC2)C[C@@H](OCc2ccc(CO)cc2)O1 | 1.59%
CC(=O)Nc1cccc(C(=O)OCCCOc2ccc(F)cc2)c1 | 18.8%
CNC[C@H](NC[C@@H](NCCCc1ccccc1)c1ccccc1)[C@H](C)O | 11.7%
COc1ccc(Cc2nc(-c3cccnc3)no2)cc1OC | 29.8%
COc1ccccc1NC(=O)c1cnc(SCC(=O)NCCc2ccccc2)n(C)c1=O | -5.15%
CC(C)(C)N(Cc1cc2ccccc2[nH]c1=O)C(=O)c1cccnc1 | -11.8%
NNC(=O)CSCc1ccc(Cl)cc1Cl | -2%
O=C(CSc1nc2ccccc2n1CCc1ccccc1)NC1CCS(=O)(=O)C1 (stereo not shown) | -1.96%
CCNC(=O)NC(=O)C(C)OC(=O)C1CCN(S(=O)(=O)c2ccccc2C(=O)OC)CC1 (stereo not shown) | 20.7%
COc1ccc(/C=N/NC(=O)Cn2nc([N+](=O)[O-])cc2C)c(OC)c1OC | 14.2%
CCOC(=O)c1c(C)n(COCCO)c2ccc(O)cc12 | 20.4%
COc1ccc(NC(=O)CSc2nc3c(sc4ccccc43)c(=O)n2CCCN2CCCC2)cc1 | -30.8%
CCOC(=O)C1=C(Cn2cnc3ccccc32)NC(=O)NC1c1cc(C)ccc1C (stereo not shown) | -13.9%

Compound | hERG current change (%, negative = inhibition) at 10uM
COc1ccccc1N1CCN(C(=O)CSc2ncnc3c2cnn3-c2ccc(C)c(C)c2)CC1 | 0.787%
NC(=O)c1nc(C(=O)N2CCN(c3ccccc3)CC2)c2ccccc2n1 | 2.14%
COC(=O)Nc1ccc(S(=O)(=O)N2CCCc3cccc(O)c32)cc1 | 40.2%
CN(C)CCNc1nc2c(c(=O)[nH]c(=O)n2C)n1CC(O)COc1ccc(Cl)cc1 (stereo not shown) | -20%
COc1ccc(N2CCN(CC(O)COC(c3ccc(F)cc3)c3ccc(F)cc3)CC2)cc1.O=C(O)C(=O)O (stereo not shown) | -81.6%
COc1ccc(CNC(=O)c2cccc(S(=O)(=O)N3CCCCC3)c2)cc1OC | 4.35%
CC1(C)O[C@H]2CC(=O)OC[C@]23[C@H]2CC[C@@]4(C)[C@H](c5ccoc5)OC(=O)[C@H]5O[C@]54[C@]2(C)[C@@H](O)C[C@@H]13 | 17.1%
Cc1ccc(C(=O)C2CCN(C(=O)c3ccc(C)cc3)CC2)cc1 | -36.8%
O=C(C(Cc1ccccc1)n1cccc1)N1CCN(c2ccccc2)CC1 (stereo not shown) | -7.46%
COC(=O)Cn1c(=NC(=O)C(C)C)sc2c(C)cc(C)cc21 | 15.4%
COc1cc(C(=O)OCC(=O)NC(C)CCc2ccccc2)cc(OC)c1OC (stereo not shown) | 9.14%
N#Cc1nc(-c2ccc(OCc3ccc(Cl)cc3)cc2)oc1N1CCOCC1 | 7.35%
CCN1C(=O)C2(C(C#N)=C(N)Oc3n[nH]c(-c4ccccc4)c32)c2ccccc21 (stereo not shown) | 6.05%
COc1cccc(/C=C2\SC(N)=NC2=O)c1OS(=O)(=O)c1ccccc1 | 5.38%
CCOC(=O)c1nc(Nc2ccccc2C)c2ccccc2n1 | 10.4%
CN1CCC(Oc2ccccc2Sc2ccccc2)CC1.O=C(O)C(=O)O | -64.5%
O=C(N/C(=C\c1ccc([N+](=O)[O-])cc1)C(=O)N1CCCCC1)c1ccc(Br)o1 | -72%
COc1ccccc1C(=O)Nc1ccnn1C1CCN(CCCC2CCCC2)CC1 | -85.1%
COCC(=O)OCc1cc2cccc(C)c2[nH]c1=O | 1.89%
CNc1nc(Cl)c(SC)c(NCc2cccc(OC)c2)n1 | 13.9%
O=C(Nc1nc(-c2ccc(Cl)cc2)cs1)c1cccnc1 | 5.68%
Cl.Oc1ccc(CN2CCCCC2)nc1-c1ccccc1 | -40.8%
COc1ccccc1CC(=O)NC1CCC(C)CC1 (stereo not shown) | 7.47%
COC(=O)c1sc(NC(=O)C(C)C)c(C(=O)OC)c1C | 17.1%
COc1ccc2c(c1)OC[C@H]1[C@@H]2N2C(=O)CNC(=O)[C@@]2(C)[C@H]1c1ccccc1 | 10.9%
Cn1c(/C=N/c2nc3ccccc3[nH]2)nc2ccccc21 | 3.85%
CN(C)c1ccc(/C=N/NC(=O)c2cccc(C(=O)N/N=C/c3ccc(N(C)C)cc3)n2)cc1 | 10.4%
